About 340 (0.77%) of roughly 44,000 compounds were called active. Not shown: some 5% with an inconclusive outcome. The call rests on the fitted dose curve; in most records, active means well fitted inhibition curve with a large enough effect; inconclusive means small, poorly fitted or top-dose-only effect; inactive means flat fitted curve, though single readings scatter. This is one part of the list.
Experiment: Acumen qHTS Assay for Inhibitors of the mTORC1 Signaling Pathway in MEF (Tsc2-/-, p53-/-) Cells: Sytravon;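 further: plate controls were DMSO for no effect and rapamycin for full effect; nearly all actives have a fitted effect of over 50% in size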
Details: phospho-rpS6 immunofluorescence/PI, 24 h; series mostly up to 38.3 µM; activity change, negative = inhibition: at the top concentration
Summary of the method: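 Immunofluorescence of rpS6 phosphorylation in Tsc2-/-, p53-/- MEFs after 24 h compound exposure, normalized to propidium iodide signal. Activity is expressed as % positive cells, thresholded with 7.5 nM rapamycin.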

Activity change, negative = inhibition, inactive:
Cc1ccc(C)c(N2CCN(S(=O)(=O)c3ccc(F)c(C(=O)Nc4ccc(Cl)cc4Cl)c3)CC2)c1 10.5%, Cc1cc2n(n1)CCCN2C(=O)Nc1ccc(C)c(Cl)c1 -4.81%, CN(c1ccccc1)S(=O)(=O)c1nnc(NC(=O)c2cccs2)s1 1.01%, CCN(Cc1ccccc1)C(=O)CCS(=O)(=O)c1cc(Br)cc2c1N(C(=O)C1CC1)CC2 -3.21%, CCOC(=O)c1c(C)oc2ccc(N(C(=O)c3ccncc3)S(=O)(=O)c3ccc(F)cc3)cc12 5.68%, CCOc1ccccc1NC(=O)Cn1c(=O)n(CCCCC(=O)NCCCOC)c(=O)c2ccccc21 2.95%, Cc1ccc2[nH]c3c(=O)n(CC(=O)NCCCN4CCN(c5ccc(F)cc5)CC4)ncc3c2c1 4.42%, CCc1ccccc1N(C)C(=O)c1cc2c(Cl)nc3ccc(C)cc3c2s1 -1.52%, O=C(NCc1cccc(F)c1)C1CCN(c2nn3cc(-c4ccc(F)cc4)nc3s2)CC1 5.06%, CCc1ccc(NC(=O)Cn2nnc(C(=O)NCCc3ccccc3)c2N)cc1 4.17%, Cc1ccccc1CNCCSc1nnnn1C -0.262%, CC1CCN(S(=O)(=O)c2ccc3c(c2)oc(=O)n3CC(=O)N2CCCCC2)CC1 -3.35%, O=C(Nc1ccc(O)c(-c2nc3ccccc3o2)c1)c1ccc(-c2cccc(Cl)c2)o1 3.04%, Cc1cccc(C)c1NC(=O)c1nc(SC(C)C)ncc1Cl 0.587%, Cc1cc(C)cc(N(CC(=O)Nc2ccc(C)cc2Cl)S(=O)(=O)c2c(C)[nH]c(=O)[nH]c2=O)c1 -20%, COCCCNC(=O)C1CCN(C(=O)c2ccc(-n3ccc4ccccc43)s2)CC1 -5.9%, Cc1ccccc1Nc1c(-c2ccc(O)cc2)nc2c(C)cccn12 -7.41%, COc1cccc(CNC(=O)CSc2nnc(C)c3c(C)n(-c4ccccc4)nc23)c1 -14%, COc1ccc(NC(=O)CCS(=O)(=O)c2cc3c4c(c2)CCN4C(=O)CC3)cc1OC -4.26%, CCC(C(=O)Nc1ccc(F)cc1F)n1nc(-c2ccccc2)c2c(c1=O)CCCC2 (stereo unspecified) 1.33%, COc1ccc(NC(=O)c2ccco2)cc1NC(=O)COc1cc(C)ccc1C(C)C -18%, CC(=O)N1c2ccccc2CC1C(=O)N1CCN(c2cc(Cl)ccc2C)CC1 (stereo unspecified) 18.6%, Cc1nc(N)c(S(=O)(=O)c2ccccc2)c(Nc2ccc(Br)cc2)n1 -0.939%, COc1ccc(Cl)cc1S(=O)(=O)N1CCC(c2ccncc2)CC1 -0.976%, O=C(c1cccn1-c1nnc(N2CCCC2)s1)N1CCN(c2ccc(F)cc2)CC1 0%, Cc1cccc(OCC(=O)NCc2ccc3c(c2)CCN3C(=O)c2ccc(Cl)cc2)c1 -8.2%, CCOc1ccc(NC(=O)c2c(NC(=O)c3ccncc3)sc3c2CCC(C(C)(C)C)C3)cc1 (stereo unspecified) -8.28%, O=C(c1ccc(F)cc1)N1CCN(CCc2ccncc2)CC1 -3.59%, COc1ccc(-c2nnc(SCC(=O)Nc3ccc(C)c(Cl)c3)nc2-c2ccc(OC)c(OC)c2)cc1OC -5.4%, CC(=O)Nc1ccc(NC(=O)CN2C(=O)CCc3cc(S(=O)(=O)N4CCCCC4)ccc32)cc1 0%, Cc1cccc(CNC(=O)CN2CC(C)Sc3ccccc32)c1 (stereo unspecified) 2.71%, COc1cccc(NC2=CC(c3ccc(C(C)C)cc3)N(c3cccc(OC)c3)C2=O)c1 (stereo unspecified) -3.96%, Cc1c(Cl)cccc1-n1nnc(-c2nc(-c3ccc4c(c3)OCO4)no2)c1C -11.8%, COc1ccc(C)cc1NS(=O)(=O)c1cc(Br)cc2c1N(C(C)=O)C(C)C2 (stereo unspecified) 4.2%, Cc1c(C(=O)N(Cc2cccc(Cl)c2)Cc2ccco2)oc2ccccc12 3.65%, CCOC(=O)c1cc(-c2ccccc2)n(-c2cccc(C(=O)NC(C)(C)C)c2)c1C -12.6%, CCOc1ccc(S(=O)(=O)NCc2cccn2Cc2cccc(C)c2)cc1 11.4%, CC(C)COc1ccc(C(=O)N(Cc2cccc(F)c2)C2CCS(=O)(=O)C2)cc1 (stereo unspecified) 0.359%, CCCn1c(=N)c(C(=O)NC2CCCCC2)cc2c(=O)n3cc(C)ccc3nc21 7.46%, CCc1cccc(C)c1NC(=O)C(NS(=O)(=O)c1ccc2c(c1)CCC(=O)N2)c1ccccc1 (stereo unspecified) 1.14%, CCN1CCc2c(sc(-n3cccc3)c2C(CCC(C)C)NC(=O)NCCC(=O)OC)C1 (stereo unspecified) 2.83%, CCCn1c2ccccc2c2cnn(CC(=O)NCCCOC(C)C)c(=O)c21 -14.4%, Cc1ccc(C)c(N2CCN(C(c3ccccc3)c3nnc(-c4ccccc4)o3)CC2)c1 (stereo unspecified) -14.1%, Cc1ccc(NS(=O)(=O)c2c(C)nc3sc(C)c(C)n3c2=O)cc1F -10.1%, COc1cccc(-c2nc(CS(=O)(=O)CC(=O)Nc3ccc(C)c(Cl)c3)c(C)o2)c1 2.16%, COc1ccc(CCNC(=O)Cc2ccc(NC(=O)N3CCSc4ncccc43)cc2)cc1OC -0.584%, Cc1cccc(NC(=O)c2cc3c([nH]c2=O)CC(c2ccccc2)CC3=O)c1 (stereo unspecified) 25.8%, O=C(Cn1c(=O)n(Cc2ccc(F)cc2)c(=O)c2sc3ccccc3c21)Nc1ccc(F)cc1F -0.121%, COc1cc(C(=O)NCc2nc(-c3ccc(Cl)cc3)no2)cc(OC)c1OC 3.24%, COC(=O)CCNC(=O)N1CCN(c2nnc(C)c3c(C)n(-c4ccccc4)nc23)CC1 -20.5%, COc1cccc(CNC(=O)Cn2cccc2C(=O)c2ccccc2)c1 -1.9%, COc1ccc(C(=O)N2CCN(c3nc4c(OC)cccc4s3)CC2)cc1OC -15.7%, Cc1cccc(CN2C(=O)c3ccccc3S(=O)(=O)c3ccc(C(=O)OCC4CCCO4)cc32)c1 (stereo unspecified) -5.2%, CCc1ccc(CNC(=O)C2COc3ccccc3C2)cc1 (stereo unspecified) 0.0851%, Cc1ccc(N2CC(NC(=O)C3CCCCC3)CC2=O)cc1 (stereo unspecified) -6.36%, COc1ccc(NC(=O)CSCc2cc(=O)c3cc(Cl)ccc3[nH]2)cc1 3.92%, CCOC(=O)c1cc(S(=O)(=O)N2CCN(c3ccccc3OC)CC2)[nH]n1 -8.83%, Cc1cccc(C(=O)Nc2cc(-c3ccccc3F)nn2-c2ccccc2)c1 0.534%, CCOc1ccc(C2CC(=O)Nc3c2c(=O)[nH]c2ncnn32)cc1 (stereo unspecified) -2.88%, CCc1ccc(C(=O)c2cn(CC(=O)Nc3ccc(F)cc3)c3ccc(F)cc3c2=O)cc1 -1.77%, CCn1c(CNC(=O)c2ccc(OC)cc2)nnc1SCC(=O)Nc1ccc(F)cc1 3.11%
